Structures are written as SMILES.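 Step 1: Grow cells in 96-well plates. Step 2: Expose to compound for 48 hours at 5 concentrations. Step 3: Interpolate endpoints linearly; if unreached, use highest concentration. The concentration for 50% growth inhibition is given as GI50. At the TGI there is no net growth.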

Results on two molecules are retold here after PubChem BioAssay (NCI).

The experiment has as its system NCI-H322M lung. Kind of experiment: NCI-60 cell line screen, 48 h.

Take `Cc1cc2c(c(O)c1Br)-c1ncoc1C(=O)[C@]1(C)CC[C@H](C(C)C)[C@H]21`: the GI50 is 8.85 µM and the TGI was 57.7 µM.

For `CCOc1ccc(/C=N/NC(=O)Cn2nc(Cc3ccccc3)c3onc(C)c3c2=O)cc1`, the GI50 is more than 100 µM and the TGI is more than 100 µM.
